Several values for one entry are separate records, joined by “and”; a condition that tells them apart may be missing. Equal values may be shown once. The whole screen tested about 71,000 compounds, of which about 1,800 (2.5%) were called active. The inconclusive results got no clear call from the source; some entries with a clear call stand among them for comparison. Calls follow the shape of the dose curve; as a rule, active = well fitted activation curve with a large enough effect in the signal ratio, with a control signal flat (not every such curve was filed as active); inconclusive = small, poorly fitted or top-dose-only effect, or effect the other way, or a change in a side signal; inactive = flat fitted curve, though single readings scatter; the % refers to the signal ratio. A potency beside an inconclusive call is a rough fit, not a confirmed value.
Experiment: Cell signaling CRE-BLA (Fsk stim); as to activity change, negative = inhibition: % of control where 0% means no effect
Settings: CHO CRE-bla reporter (cAMP response element driving beta-lactamase), forskolin EC10, beta-lactamase ratio; activity change, negative = inhibition: at 38.2 µM (top of the series) unless noted
Outline: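 CRE-bla CHO cells stimulated with EC10 NKH 477 (water-soluble forskolin) and compound titrations, 3 h at 37C; beta-lactamase read with CCF4 after 2 h at room temperature. Activity from 460/530 nm emission ratio, AC50 values for positive or negative modulation.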
In the case of Cn1c(=O)oc2cc(S(=O)(=O)Nc3ccc4c(c3)OCO4)ccc21, the “activity change, negative = inhibition” value is reported as inactive: -17.2%.
With COc1cccc(NS(=O)(=O)c2cn(C)c(=O)n(C)c2=O)c1 the “activity change, negative = inhibition” value was inactive: 5.74%.
With CCN(CC)c1ccc(-n2c(C)c(C(C)=O)c(C(C)=O)c2C)cc1 the “activity change, negative = inhibition” value was inactive: -11%.
For Cn1c(C(=O)N2CCCc3ccccc32)cc2sccc21, the “activity change, negative = inhibition” value was inactive: -7.24%.
With O=c1c(O)c(-c2ccc(O)c(O)c2)oc2cc(O)ccc12 the Potency was inconclusive: 12.6 µM [falling, partial curve] and inconclusive: 25.1 µM [falling, partial curve].
For CCN(CC)CCC[C@H](C)Nc1c2ccc(Cl)cc2nc2ccc(OC)cc12, the Potency was inconclusive: 15.8 µM [rising, partial curve] and inconclusive: 10 µM [rising, partial curve].
In the case of COc1ccc(-c2nc(C(N)=O)c3[nH]c(=O)n(-c4cccc(Cl)c4)c3n2)cc1OC, the Potency is reported as inconclusive: 10 µM [rising, partial curve].
With CCOc1cc(-c2cc(-c3ccc(N)cc3)nc(N)c2C#N)ccc1O the Potency was active: 2.51 µM.
With COc1cc(NC(=O)c2ccco2)c(OC)cc1NC(=O)CSc1nnc(-c2cccs2)n1C the Potency was inconclusive: 7.94 µM [rising, partial curve].
In the case of COc1ccc2nc(C)c3cc(C)oc3c2c1, the Potency is reported as inconclusive: 10 µM [rising, partial curve].
For O=c1c(-c2ccc(F)cc2)nc2cnc(N3CCOCC3)nc2n1CCc1ccccc1, the Potency was inconclusive: 0.501 µM [rising, full curve].
With Cc1ccc(OCCN2C(=O)OC(C)(C)C2(C)O)cc1 (stereo not given) the “activity change, negative = inhibition” value was inactive: -0.539%.
For CCOC(=O)/C(N=O)=C(\O)C1CCN(C(=O)OCC)CC1, the activity change, negative = inhibition was inconclusive: 14.5%.
In the case of Cc1csc(/C(=N\O)c2csc(C)n2)n1, the “activity change, negative = inhibition” value is reported as inactive: -6.87%.
With O=C(O)Cn1c(=O)oc2cc(S(=O)(=O)NC3CCCCC3)ccc21 the “activity change, negative = inhibition” value was inactive: -0.75%.
In the case of C[C@@]12CC[C@@H]3c4ccc(O)cc4C[C@H](CCCCCCCCCS(=O)CCCC(F)(F)C(F)(F)F)[C@H]3[C@@H]1CC[C@@H]2O (stereo not given in full), the activity change, negative = inhibition is reported as inconclusive: -12.9%.
For c1coc(CNc2nc(-c3ccncc3)cs2)c1, the activity change, negative = inhibition was inconclusive: -16.3%.
For CCOC(=O)CCNC(=O)Nc1ccc2nc(C)n(Cc3ccc(Cl)cc3)c(=O)c2c1, the activity change, negative = inhibition was inconclusive: 35.3%.
For COc1c2c(c3c(c1CCC(=O)O)OC(C)(C)C=C3)OC(C)(C)C=C2, the activity change, negative = inhibition was inactive: 5.18% [at 7.6 µM].
For Cc1cccc(-c2nnc(SCC#N)n2-c2ccccc2)c1, the Potency was inconclusive: 10 µM [rising, single point].
In the case of C=Cn1c(N2CCOCC2)nc2c1c(=O)[nH]c(=O)n2C, the Potency is reported as inconclusive: 25.1 µM [rising, single point].
With COc1ccc2[nH]cc(CCNc3cc(-c4ccoc4)ncn3)c2c1 the activity change, negative = inhibition was inconclusive: 29.4%.
In the case of COCCN1Cc2cccc(C(=O)NCc3ccc4c(c3)OCO4)c2C1=O, the “activity change, negative = inhibition” value is reported as inactive: 20.6%.
In the case of Cn1c(CCNC(=O)c2cccs2)nnc1SCC(=O)Nc1nc(-c2ccccc2)cs1, the “activity change, negative = inhibition” value is reported as inactive: 3.03%.
For Cc1cc(C2CCCCC2)n(O)c(=O)c1, the “activity change, negative = inhibition” value was inactive: -22.1% [at 17.1 µM].
For CCc1c(C)c2ccc(OCC(=O)N(C)C)c(C)c2oc1=O, the Potency was active: 6.31 µM.
For Cc1ccnc(NC(=O)C2CCN(S(=O)(=O)c3cccc4nsnc34)CC2)c1, the Potency was inconclusive: 7.94 µM [falling, partial curve, poor fit].
With Cn1c(NCCO)nc2c(c1=O)C1(CCCCC1)Cc1ccccc1-2 the activity change, negative = inhibition was inconclusive: 19.1%.
For CCc1ccccc1NC(=O)CN(c1cccc(OC)c1)S(C)(=O)=O, the activity change, negative = inhibition was inconclusive: -13.6% [at 7.6 µM].
In the case of COc1ccc(Cc2nn3c(-c4ccccc4Br)nnc3s2)cc1, the “activity change, negative = inhibition” value is reported as inactive: -1.33%.
In the case of CCCC1CCC(c2nc(-c3cccnc3)no2)CC1 (stereo not given), the “activity change, negative = inhibition” value is reported as inactive: 6.68%.
In the case of COc1ccccc1N1CCN(S(=O)(=O)Cc2ccccc2Cl)CC1, the Potency is reported as inconclusive: 6.31 µM [falling, partial curve].
In the case of Cc1cccc2cc(CN(Cc3cccs3)C(c3nnnn3C3CCCC3)C(C)C)c(=O)[nH]c12 (stereo not given), the activity change, negative = inhibition is reported as inconclusive: 10.1%.
For COc1ccc(C2=NOC(C(=O)NCc3ccc(F)cc3)C2)cc1 (stereo not given), the Potency was inconclusive: 15.8 µM [rising, partial curve].
With CCCCOC(=O)c1ccc(NC(=O)c2ccoc2C)cc1 the Potency was inconclusive: 0.631 µM [rising, full curve, poor fit].
For CCOC(=O)N1CCN(S(=O)(=O)c2ccc(C)cc2)C1c1ccccc1 (stereo not given), the “activity change, negative = inhibition” value was inactive: -12.7%.
With CCO the “activity change, negative = inhibition” value was inactive: -9.93%.
In the case of N#Cc1c(NC(=O)CSc2ncnc3c2cnn3-c2ccccc2Cl)sc2c1CCCC2, the “activity change, negative = inhibition” value is reported as inactive: 6.65%.
With CCCOCCOC(=O)c1[nH]c2c(c1C)C(=O)CC(c1cc(OC)ccc1OC)C2 (stereo not given) the Potency was active: 2.51 µM.
In the case of COc1ccc(OC)c(C2=NOC(C(=O)NCC3CCCO3)C2)c1 (stereo not given), the Potency is reported as inconclusive: 0.316 µM [rising, partial curve].
With CCCCn1ccc(=O)c2c(C(F)(F)F)nccc21 the activity change, negative = inhibition was inconclusive: -8.72% [at 7.6 µM].
In the case of COc1ccccc1CN1CC2(CCN(C(=O)c3cnccn3)CC2)C1, the “activity change, negative = inhibition” value is reported as inactive: 2.17%.
With O=C(CSc1nc2nc(-c3cccs3)cc(C(F)(F)F)c2c(=O)[nH]1)NCc1ccco1 the Potency was inconclusive: 12.6 µM [rising, partial curve].
In the case of N=c1c(C(=O)NCc2ccco2)cc2c(=O)n3ccccc3nc2n1Cc1ccc(Cl)cc1, the Potency is reported as active: 2.51 µM.
In the case of O=C(CSc1nnc(Cc2ccccc2)o1)NCc1ccco1, the “activity change, negative = inhibition” value is reported as inactive: -11%.
For C[C@]1(C(=O)NCc2cc(F)cc(C(F)(F)F)c2)C=C[C@@H](Cc2ccccc2)N1C(=O)c1ccccc1, the “activity change, negative = inhibition” value was inactive: -16.6%.
With Cc1nn(-c2ccccc2)c2c1C(c1cccnc1)N1C=C(S(=O)(=O)N3CCCCC3)C=CC1=N2 (stereo not given) the Potency was inconclusive: 10 µM [rising, single point].
For CCOC(=O)C1=C(Cn2cnc3ccccc32)NC(=O)NC1c1cc(C)ccc1C (stereo not given), the activity change, negative = inhibition was inconclusive: -9.84%.
With Cc1cc(C)cc(OCc2nnc(SCC(=O)N3CCN(c4ccccc4)CC3)o2)c1 the “activity change, negative = inhibition” value was inactive: 6.46%.
With COC(=O)[C@@]1(Cc2ccc(F)cc2)[C@H]2c3cc(C(=O)N4CCCC4)n(CCN4CNCC4=O)c3C[C@H]2CN1C(=O)c1ccccc1 the activity change, negative = inhibition was inconclusive: -13.3%.

From PubChem BioAssay AID662 (National Center for Advancing Translational Sciences (NCATS), 2007)
Potency is read from the fitted curve at half-maximal effect; tags tell the direction and shape of the fitted curve.
